{"source": "PubChem BioAssay AID485294", "about": "(National Center for Advancing Translational Sciences (NCATS), 2010)", "note": "The campaign covered roughly 370,000 compounds. About 150 (0.041%) were called active. The inconclusive results got no clear call from the source; some entries with a clear call stand among them for comparison. Calls follow the shape of the dose curve; as a rule, active = well fitted inhibition curve with a large enough effect; inconclusive = small, poorly fitted or top-dose-only effect; inactive = flat fitted curve, though single readings scatter. Potencies of inconclusive entries are left out as doubtful fits. Potency is read from the fitted curve at half-maximal effect; tags tell the direction and shape of the fitted curve.", "data": [{"target": "Beta-lactamase (Escherichia coli (strain K12)) (UniProt P00811)", "sequence (P00811 whole entry, looked up)": "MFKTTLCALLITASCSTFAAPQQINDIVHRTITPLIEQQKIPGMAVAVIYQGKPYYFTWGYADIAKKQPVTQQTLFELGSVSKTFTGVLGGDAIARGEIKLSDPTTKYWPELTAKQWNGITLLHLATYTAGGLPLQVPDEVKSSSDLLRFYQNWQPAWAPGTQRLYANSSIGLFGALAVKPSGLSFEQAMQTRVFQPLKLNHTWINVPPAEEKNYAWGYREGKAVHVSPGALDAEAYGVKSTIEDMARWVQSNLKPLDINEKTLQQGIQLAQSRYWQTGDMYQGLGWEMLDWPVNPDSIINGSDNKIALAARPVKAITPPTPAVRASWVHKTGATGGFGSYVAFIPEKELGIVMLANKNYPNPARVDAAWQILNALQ", "test": "qHTS Inhibitors of AmpC Beta-Lactamase (assay with detergent); also: nearly all actives have a fitted effect of over 25% in size;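 as to activity change, negative = inhibition: 0% = no-compound wells and -100% = no-enzyme wells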", "conditions": "AmpC hydrolysis of nitrocefin, absorbance 480 nm, 0.01% Triton; activity change, negative = inhibition: at 114 µM (top of the series)", "how_it_was_run": "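AmpC (5.3 nM in the dispensed reagent) in 20 mM phosphate pH 7.0 with 0.01% (detergent screen) or 0.0001% Triton X-100 was preincubated with compounds for 15 min at room temperature. Nitrocefin was then added from an 800 uM solution, and hydrolysis was followed at 480 nm.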", "values": [{"smiles": "CCN(CC)C(=O)C(=O)N/N=C/c1cccs1", "Potency": "inconclusive [inhibitor, full curve, poor fit]"}, {"smiles": "O=C(NCCN1CCOCC1)c1cc(-c2ccccc2Cl)nc2ccccc12", "activity change, negative = inhibition": "inactive: 4.54%"}, {"smiles": "COc1cc(NC(=O)/C=C/c2ccccc2[N+](=O)[O-])cc(OC)c1", "activity change, negative = inhibition": "inactive: -8.78%"}, {"smiles": "C=CCNc1nc(N)c(C(=C(C#N)C#N)c2ccccc2)s1", "Potency": "inconclusive [inhibitor, full curve, poor fit]"}, {"smiles": "COc1ccc(/C=N/NC(=O)c2sc(C)nc2C)cc1", "activity change, negative = inhibition": "inactive: 1.26%"}, {"smiles": "CC12CCC(C(=O)NCc3ccccc3)(OC1=O)C2(C)C", "note": "(configuration not stated)", "Potency": "inconclusive [inhibitor, partial curve, poor fit]"}, {"smiles": "NS(=O)(=O)c1ccc2nc(NC(=O)Nc3ccc(F)cc3)sc2c1", "activity change, negative = inhibition": "inactive: -13.6%"}, {"smiles": "Cc1nnc(Nc2ccc(F)cc2)c2ccccc12", "Potency": "inconclusive [inhibitor, full curve, poor fit]"}, {"smiles": "O=C(Nc1ccnn1C1CCN(C(=O)c2cnsn2)CC1)c1cccc(F)c1", "Potency": "inconclusive [inhibitor, partial curve, poor fit]"}, {"smiles": "CN(C)C(=O)COc1ccc2ccc(=O)oc2c1", "activity change, negative = inhibition": "inactive: -6.31%"}, {"smiles": "Cc1ccc(NC(=S)Nc2ccc(Cl)c(Cl)c2)c(OC(F)F)c1", "Potency": "inconclusive [inhibitor, single point]"}, {"smiles": "Cc1ccc(-c2cc(C(=O)NCCCN3CCCC3)c3ccccc3n2)cc1C", "activity change, negative = inhibition": "inactive: -3.96%"}, {"smiles": "O=C(Nc1ccnn1C1CCN(CC2CC=CCC2)CC1)c1ccccc1", "note": "(configuration not stated)", "Potency": "inconclusive [inhibitor, full curve, poor fit]"}, {"smiles": "CC1CCC(NC(=O)c2ccc(N3CCCC3=O)cc2)CC1", "note": "(configuration not stated)", "Potency": "inconclusive [inhibitor, partial curve]"}, {"smiles": "NC(=O)C1CCN(Cc2nc(-c3ccccc3)no2)CC1", "Potency": "inconclusive [inhibitor, full curve]"}, {"smiles": "O=C(O)c1ccc2c(c1)C(=O)N([C@H](Cc1ccc3ccccc3c1)C(=O)O)C2=O", "Potency": "inconclusive [inhibitor, full curve, poor fit]"}, {"smiles": "CCCCn1c(-c2c(Cl)c(C)nn2C)n[nH]c1=S", "Potency": "inconclusive [inhibitor, single point]"}, {"smiles": "COC(=O)c1ccc(NC(=O)C(OC)c2ccccc2)cc1", "note": "(configuration not stated)", "activity change, negative = inhibition": "inactive: 1.44%"}, {"smiles": "C=CCOc1ccc(/C=N\\NC(N)=S)cc1", "activity change, negative = inhibition": "inactive: -1.32%"}, {"smiles": "O=S(=O)(NCC1(N2CCOCC2)CCCCC1)c1ccc(F)cc1", "Potency": "inconclusive [inhibitor, partial curve, poor fit]"}, {"smiles": "Cc1sc(NC(=O)C2CC(Cl)=CCC2C(=O)O)c(C#N)c1C", "note": "(configuration not stated)", "Potency": "inconclusive [inhibitor, partial curve, poor fit]"}, {"smiles": "Clc1ccc(-c2ccc(C=Nc3ccc(N4CCOCC4)cc3)o2)cc1", "Potency": "inconclusive [inhibitor, partial curve, poor fit]"}, {"smiles": "COc1ccccc1NC(=S)N1CCc2cc(OC)c(OC)cc2C1", "Potency": "inconclusive [inhibitor, partial curve, poor fit]"}, {"smiles": "CCCNc1c(NC(=O)COc2ccc(Cl)cc2)c(=O)oc2ccccc12", "activity change, negative = inhibition": "inactive: -5.24%"}, {"smiles": "N[C@@H](CO)c1cn([C@@H](Cc2cc3ccccc3[nH]2)C(=O)N2CCNCC2)nn1", "activity change, negative = inhibition": "inactive: -3.37%"}, {"smiles": "Cc1csc(NC(=O)c2cc(C)nc3ccccc23)n1", "Potency": "inconclusive [inhibitor, full curve, poor fit]"}, {"smiles": "CN(C)c1cccc(C(=O)OC(C(=O)Nc2ccc(Cl)cc2C(F)(F)F)c2ccccc2)c1", "note": "(configuration not stated)", "Potency": "inconclusive [inhibitor, full curve, poor fit]"}, {"smiles": "COc1ccc(-c2nnc(NC(=O)C3=COCCO3)o2)cc1", "Potency": "inconclusive [inhibitor, full curve]"}, {"smiles": "O=C(Nc1ccccc1C(=O)OCc1cc(=O)n2c3c(sc2n1)CCCC3)c1ccc(F)cc1", "activity change, negative = inhibition": "inactive: 13.2%"}, {"smiles": "CCOC(=O)C1CCN(CC(O)COCc2ccc3c(c2)OCO3)CC1", "note": "(configuration not stated)", "Potency": "inconclusive [inhibitor, full curve, poor fit]"}, {"smiles": "CCc1ccccc1N(CC)C(=O)c1c(C)oc2ncn(C)c(=O)c12", "activity change, negative = inhibition": "inactive: -2.33%"}, {"smiles": "C#CCOCCOCCOCCNc1nc(N2CCN(C(=O)[C@H]([C@@H](C)O)n3cc(CCCCN)nn3)CC2)nc(N2CCN(C(=O)[C@H](CCCCN)n3cc(CCC(=O)O)nn3)CC2)n1", "Potency": "inconclusive [inhibitor, single point]"}, {"smiles": "Cc1cc(NC(=O)C2(c3ccccc3)CCCC2)no1", "Potency": "inconclusive [inhibitor, full curve, poor fit]"}, {"smiles": "COc1ccccc1N1CCN(C(=O)c2cc(CC(C)C)on2)CC1", "activity change, negative = inhibition": "inactive: 21.6%"}, {"smiles": "COc1ccc(CC(=O)Nc2sc3c(c2C#N)CC(C)(C)NC3(C)C)cc1OC", "activity change, negative = inhibition": "inactive: -18.9%"}, {"smiles": "COc1ccc(CN2C(=O)CC(=O)NC2=O)cc1", "Potency": "inconclusive [inhibitor, full curve, poor fit]"}, {"smiles": "CCNS(=O)(=O)c1ccc(NC(=O)CC(C)c2ccccc2)cc1", "note": "(configuration not stated)", "Potency": "inconclusive [inhibitor, full curve, poor fit]"}, {"smiles": "CCCC(=O)NNc1c2ccccc2nc2ccccc12", "activity change, negative = inhibition": "inactive: 0.351%"}, {"smiles": "COc1cccc(-n2c(Cc3cc(=O)[nH]c(=O)[nH]3)nnc2SCC(=O)N2CCC(C)CC2)c1", "Potency": "inconclusive [inhibitor, full curve]"}, {"smiles": "C=CC[N@@+]12CC[C@]34c5ccccc5N5/C=C6\\C7N(/C=C(\\C53)[C@@H](C[C@@H]41)/C(=C/CO)C2)c1ccccc1[C@@]71CC[N@@+]2(CC=C)C/C(=C\\CO)[C@@H]6C[C@@H]12", "note": "(some centres not stated)", "Potency": "inconclusive [inhibitor, full curve]"}, {"smiles": "Cc1c(NC(=O)CSc2nnnn2Cc2ccccc2)c(=O)n(-c2ccccc2)n1C", "Potency": "inconclusive [inhibitor, full curve, poor fit]"}, {"smiles": "C=CCSC1=N/C(=C\\c2sccc2C)C(=O)S1", "activity change, negative = inhibition": "inactive: -0.815%"}, {"smiles": "O=C(CN(Cc1ccco1)C(=O)CNS(=O)(=O)c1ccc(Cl)cc1)NC1CCCCC1", "Potency": "inconclusive [inhibitor, full curve, poor fit]"}, {"smiles": "CC(C)(C)OC(=O)[C@H](Cc1ccccc1)NC(=O)c1nc[nH]c1C(=O)NCCCCCN", "Potency": "inconclusive [inhibitor, partial curve]"}, {"smiles": "CN(CC(=O)N1CCCC1)S(=O)(=O)c1ccc(Cl)cc1", "Potency": "inconclusive [inhibitor, full curve, poor fit]"}, {"smiles": "OCCNc1nc(Nc2ccccc2)nc2ccccc12", "activity change, negative = inhibition": "inactive: -0.531%"}, {"smiles": "Cc1cccc(N2CCN(C(=O)CCn3c(=S)[nH]c4cc5c(cc4c3=O)OCO5)CC2C)c1", "note": "(configuration not stated)", "Potency": "inconclusive [inhibitor, full curve, poor fit]"}, {"smiles": "CC(C)(C)C1CCc2c(sc(NC(=O)Cn3nnc(-c4ccccc4Cl)n3)c2C#N)C1", "note": "(configuration not stated)", "Potency": "inconclusive [inhibitor, single point]"}, {"smiles": "C/C(=C\\c1cccs1)C(=O)c1c(C)cc(C)[nH]c1=O", "activity change, negative = inhibition": "inactive: 6.34%"}, {"smiles": "CN(c1ccc(F)cc1)S(=O)(=O)c1ccc(Cl)c(C(=O)Nc2ccncc2)c1", "Potency": "inconclusive [inhibitor, full curve]"}, {"smiles": "O=c1nc2n(c3cc(Cl)c(S(=O)(=O)N4CCOCC4)cc13)CCCCC2", "Potency": "inconclusive [inhibitor, full curve]"}, {"smiles": "CC(C)c1ccc(NC(=O)Cn2c(=O)n(CC3CCC(C(=O)NCCc4ccccc4)CC3)c(=O)c3ccccc32)cc1", "note": "(configuration not stated)", "activity change, negative = inhibition": "inactive: -0.536%"}, {"smiles": "Cc1ccc(S(=O)(=O)CC(=O)N(CCCN2CCOCC2)c2nc3c(F)cccc3s2)cc1", "Potency": "inconclusive [inhibitor, partial curve]"}, {"smiles": "Cn1c(Sc2nc3ccccc3n2C)nc2ccccc21", "activity change, negative = inhibition": "inactive: 0.612%"}, {"smiles": "Cn1c(CO)cnc1SCc1ccccc1", "Potency": "inconclusive [inhibitor, partial curve, poor fit]"}, {"smiles": "Cc1ccc(C(=O)OCC(=O)NCCNC(=O)COC(=O)c2ccc(C)o2)o1", "Potency": "inconclusive [inhibitor, single point]"}, {"smiles": "O=C(Nn1cnnc1)c1ccc(Cl)cc1", "Potency": "inconclusive [inhibitor, full curve, poor fit]"}, {"smiles": "CCOc1ccc(CCNC(=O)CCS(=O)(=O)c2ccc(Br)cc2)cc1OCC", "activity change, negative = inhibition": "inactive: 0.354%"}, {"smiles": "CC1Oc2ccccc2N(Cc2ccccc2Cl)C1=O", "note": "(configuration not stated)", "Potency": "inconclusive [inhibitor, full curve, poor fit]"}, {"smiles": "CS(=O)(=O)C1=NN2C(=N)/C(=C\\c3ccc(OC(=O)c4ccco4)cc3)C(=O)N=C2S1", "Potency": "inconclusive [inhibitor, full curve, poor fit]"}, {"smiles": "Cc1cc(C)n(CCc2nc3c4ccccc4nc(N4CCN(c5cccc(C)c5C)CC4)n3n2)n1", "activity change, negative = inhibition": "inactive: 28.2%"}, {"smiles": "C/C(=N\\NC(=O)c1ccc(NS(=O)(=O)c2cccs2)cc1)c1ccc(Cl)cc1", "Potency": "inconclusive [inhibitor, single point]"}, {"smiles": "CC(=O)Nc1ccc(C(=O)N/N=C/c2ccncc2)cc1", "activity change, negative = inhibition": "inactive: -12.2%"}, {"smiles": "Cc1ccc(-c2nn(-c3ccc(F)cc3)cc2C(=O)NCC(c2cccs2)N2CCOCC2)cc1", "note": "(configuration not stated)", "Potency": "inconclusive [inhibitor, full curve]"}, {"smiles": "CN(C(=O)c1ccccc1C(=O)OCC(=O)c1ccc(Br)cc1)c1ccccc1", "Potency": "inconclusive [inhibitor, partial curve]"}, {"smiles": "CCCC(NCC(=O)Nc1ccccc1C(=O)NC1CC1)c1ccccc1", "note": "(configuration not stated)", "Potency": "inconclusive [inhibitor, partial curve, poor fit]"}, {"smiles": "CN1C(=O)C(=Cc2ccccc2OCc2ccc(Cl)cc2)C(=O)N(C)C1=O", "Potency": "inconclusive [inhibitor, full curve, poor fit]"}]}]}
